# The inconclusive results got no clear call from the source; some entries with a clear call stand among them for comparison. For some assays here: Potencies of inconclusive entries are left out as doubtful fits. The source made the active and inactive calls. Calls follow the shape of the dose curve; as a rule, active = well fitted curve in the direction sought with a large enough effect; inconclusive = small, poorly fitted or top-dose-only effect, or another doubt; inactive = no such curve, though single readings can be large; an effect the other way counts as inactive or inconclusive.
# Tests used:
# [1] = P-glycoprotein substrates identified in KB-3-1 adenocarcinoma cell line, qHTS therapeutic library screen (AID 1346986); also: nearly all actives have a fitted effect of over 60% in size
# Summary of the method: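 72 h cell-killing screen, 500 cells/well, CellTiter-Glo luminescence. Paired lines KB-3-1/KB-8-5-11; P-gp dependence checked by tariquidar co-treatment and HEK-293 MDR-19 versus empty-vector cells.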
# [2] = system: Zika virus NS2B-NS3 protease (unlinked complex); experiment: Primary screen GU Rhodamine qHTS for Zika virus inhibitors: Unlinked NS2B-NS3 protease assay (AID 1347159); conditions: Recombinant ZIKV NS2B-NS3 protease, Rhodamine110 substrate fluorescence; series mostly up to 107 µM; also: potency is read from the fitted curve at half-maximal effect; nearly all actives have a fitted effect of over 60% in size
# Summary of the method: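 Buffer 10 mM Tris-HCl pH 8.0, 0.01% Tween 20. Unlinked protease 25 nM; compound preincubation 15 min, RT, protected from light. Substrate Rhod110, 1.5 microM; ~15% conversion in 15 min.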
# [3] = Primary qHTS for inhibitors of nuclear receptor binding SET domain protein 2 (NSD2) in an RCH-ACV wild type WT cells (2C) (AID 1645877); conditions: activity change, negative = cell killing: at 44.9 µM (top of the series) unless noted; also: nearly all actives have a fitted effect of over 70% in size
# [4] = Primary fluorescence-based thiol-reactive (MSTI) qHTS assay for identification of artifact compounds. (AID 1845221); also: potency is read from the fitted curve at half-maximal effect;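 also: thiol-reactive compounds lower the probe fluorescence signal; nearly all actives have a fitted effect of over 65% in size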
# Summary of the method: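 Thiol-reactive compounds detected by quenching of 4 uM MSTI fluorescence (525/598 nm) after 1 h room-temperature dark incubation in PBS pH 7.4, 2% DMSO. qHTS titration; percent inhibition Hill-fitted against Acetyl-MSTI/MSTI controls.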
# CAOV3 = experiment: Primary qHTS to identify gynecologic anti-cancer compounds using libraries of approved drugs and bioactive compounds (AID 1345084); conditions: Gynecologic cancer cell panel viability, ATPlite luminescence, 48 h; series mostly up to 57.5 µM; also: nearly all actives have a fitted effect of over 55% in size; also: potency is read from the fitted curve at half-maximal effect
# Summary of the method: (§1)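 Five-point cytotoxicity, 48 h drug exposure at 37 C, 5% CO2, on cells seeded 16 h beforehand. ATP content read by ATPlite luminescence.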
# HeLa = experiment: as above; conditions: Gynecologic cancer cell panel viability, ATPlite luminescence, 48 h; series mostly up to 57.5 µM
# Summary of the method: as §1
# [5] = Primary qHTS for inhibitors of nuclear receptor binding SET domain protein 2 (NSD2) in an isogenic RCH-ACV NSD2 p.E1099K mutant (9B) (AID 1645876); conditions: activity change, negative = viability loss: at 44.9 µM (top of the series) unless noted; also: nearly all actives have a fitted effect of over 70% in size
# [6] = biological target: Glutathione peroxidase 1 (Homo sapiens) (UniProt P07203); experiment: Primary qHTS Assay for Inhibitors of Recombinant Selenoprotein Glutathione Peroxidase 1 (GPX1) (AID 1845191); also: nearly all actives have a fitted effect of over 65% in size
# Summary of the method: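 GPX1 10 nM, GR 100 nM, GSH 1 mM, NADPH 0.5 mM, CHP 0.5 mM (final). 30-min cpd preincubation, RT. Ex340/Em450 read t=0, t=15 min.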
# Hek293T = experiment: Primary qHTS to identify gynecologic anti-cancer compounds using libraries of approved drugs and bioactive compounds (AID 1345084); conditions: Gynecologic cancer cell panel viability, ATPlite luminescence, 48 h, control line for the selectivity index; series mostly up to 57.5 µM; also: nearly all actives have a fitted effect of over 55% in size; also: potency is read from the fitted curve at half-maximal effect
# Summary of the method: as §1
# SKOV3 = experiment: as above; conditions: Gynecologic cancer cell panel viability, ATPlite luminescence, 48 h; series mostly up to 57.5 µM
# Summary of the method: as §1
# [7] = system: Zika virus NS2B-NS3 protease (linked construct); experiment: Primary screen NINDS Rhodamine qHTS for Zika virus inhibitors (AID 1347160); also: nearly all actives have a fitted effect of over 55% in size; also: potency is read from the fitted curve at half-maximal effect
# Summary of the method: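 Aprotinin served as in-plate control. Conditions: 25 nM linked NS2B-NS3, pH 8.0 Tris buffer, titrated compounds, 15 min preincubation and 15 min reaction with 1.5 microM Rhod110 substrate at room temperature.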
# Es-2 = experiment: Primary qHTS to identify gynecologic anti-cancer compounds using libraries of approved drugs and bioactive compounds (AID 1345084); conditions: Gynecologic cancer cell panel viability, ATPlite luminescence, 48 h; series mostly up to 57.5 µM; also: nearly all actives have a fitted effect of over 55% in size; also: potency is read from the fitted curve at half-maximal effect
# Summary of the method: as §1
# Tags tell the direction and shape of the fitted curve.
# Chain of UniProt P07203 (P07203 whole entry, looked up): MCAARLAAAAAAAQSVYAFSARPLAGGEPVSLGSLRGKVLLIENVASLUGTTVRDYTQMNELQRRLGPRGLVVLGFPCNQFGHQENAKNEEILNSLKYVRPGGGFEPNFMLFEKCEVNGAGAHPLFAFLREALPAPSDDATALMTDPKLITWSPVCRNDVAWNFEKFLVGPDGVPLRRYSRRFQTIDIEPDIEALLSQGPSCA
Structure (SMILES),Potency [1],Potency [2],Potency [3],Potency [4],Potency (CAOV3),Potency (HeLa),Potency [5],Potency [6],Potency (Hek293T),Potency (SKOV3),Potency [7],Potency (Es-2)
O=C(O)CCc1cccc(O[C@@H]2O[C@H](CO)[C@@H](O)[C@H](O)[C@H]2O)c1O,inactive,"inconclusive [inhibitor, partial curve]",inactive,active: 8.26 µM,inactive,inactive,–,–,–,–,–,–
C=C1C[C@]23C[C@H]1CC[C@H]2[C@@]12C=C[C@H](O)[C@@](C)(C(=O)O1)[C@H]2[C@@H]3C(=O)O,inactive,–,–,inactive,inactive,–,inactive,inactive,inactive,inactive,–,–
C=C(C(=O)O)[C@H]1C[C@]2(C)[C@@H](O)CC[C@]23O[C@H]1C[C@@H]3C,–,"inconclusive [inhibitor, single point]",–,active: 29.9 µM,"inconclusive [rising, single point]",–,–,–,inactive,"inconclusive [rising, single point]","inconclusive [inhibitor, partial curve]",inactive
COc1cc(/C=C/C=O)cc(OC)c1O[C@@H]1O[C@H](CO)[C@@H](O)[C@H](O)[C@H]1O,–,–,–,active: 14.7 µM,"inconclusive [rising, partial curve, poor fit]",–,inactive,–,inactive,inactive,inactive,–
